Measurements as given in publication PMC9911399, “Two distinct binding modes provide the RNA-binding protein RbFox with extraordinary sequence specificity”.
Changes are numbered by the printed parent chain; changes in the protein carry UniProt numbers. This is one part of the list.

T1: RBFOX1 RRM RbFoxmut (Fox-RRM*) (Homo sapiens, UniProt Q9NWB1 109-208, R118D;E147R;N151S;E152T)
T1 sequence: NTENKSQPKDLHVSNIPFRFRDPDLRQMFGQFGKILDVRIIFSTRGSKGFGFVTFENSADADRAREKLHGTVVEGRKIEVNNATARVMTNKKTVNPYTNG

B1: AAAAUUC (DNA:RNA)
RNA: GGGAGACCGGAAUUCAGAUUGUCCAAAAUUCUUAAAUCCCGUCGUAGCCACCA
DNA 1: CAATCTGAATTCCGGTCTCCC
DNA 2: TGGTGGCTACGACGGGATT
B2: CUGCGAU (DNA:RNA)
RNA: GGGAGACCGGAAUUCAGAUUGUCCCUGCGAUUUAAAUCCCGUCGUAGCCACCA
DNA 1: CAATCTGAATTCCGGTCTCCC
DNA 2: TGGTGGCTACGACGGGATT
B3: UUGUGAU (DNA:RNA)
RNA: B2 RNA with C25U, C28U
DNA 1: CAATCTGAATTCCGGTCTCCC
DNA 2: TGGTGGCTACGACGGGATT
B4: GUGUGUA (DNA:RNA)
RNA: B2 RNA with C25G, C28U, A30U, U31A
DNA 1: CAATCTGAATTCCGGTCTCCC
DNA 2: TGGTGGCTACGACGGGATT
B5: GCACCGU (DNA:RNA)
RNA: B2 RNA with C25G, U26C, G27A, G29C, A30G
DNA 1: CAATCTGAATTCCGGTCTCCC
DNA 2: TGGTGGCTACGACGGGATT
B6: UACGCAG (DNA:RNA)
RNA: B1 RNA with A25U, A27C, A28G, U29C, U30A, C31G
DNA 1: CAATCTGAATTCCGGTCTCCC
DNA 2: TGGTGGCTACGACGGGATT
B7: GGGUACC (DNA:RNA)
RNA: B1 RNA with A25G, A26G, A27G, A28U, U29A, U30C
DNA 1: CAATCTGAATTCCGGTCTCCC
DNA 2: TGGTGGCTACGACGGGATT
B8: AUCAGAC (DNA:RNA)
RNA: B1 RNA with A26U, A27C, U29G, U30A
DNA 1: CAATCTGAATTCCGGTCTCCC
DNA 2: TGGTGGCTACGACGGGATT
B9: AAUUCUA (DNA:RNA)
RNA: B1 RNA with A27U, A28U, U29C, C31A
DNA 1: CAATCTGAATTCCGGTCTCCC
DNA 2: TGGTGGCTACGACGGGATT
B10: CCAAAGG (DNA:RNA)
RNA: B1 RNA with A25C, A26C, U29A, U30G, C31G
DNA 1: CAATCTGAATTCCGGTCTCCC
DNA 2: TGGTGGCTACGACGGGATT
B11: AAUUCGC (DNA:RNA)
RNA: B1 RNA with A27U, A28U, U29C, U30G
DNA 1: CAATCTGAATTCCGGTCTCCC
DNA 2: TGGTGGCTACGACGGGATT
B12: GUCUAUA (DNA:RNA)
RNA: B1 RNA with A25G, A26U, A27C, A28U, U29A, C31A
DNA 1: CAATCTGAATTCCGGTCTCCC
DNA 2: TGGTGGCTACGACGGGATT
B13: GAACCAA (DNA:RNA)
RNA: B1 RNA with A25G, A28C, U29C, U30A, C31A
DNA 1: CAATCTGAATTCCGGTCTCCC
DNA 2: TGGTGGCTACGACGGGATT
B14: UUUCCUG (DNA:RNA)
RNA: B2 RNA with C25U, G27U, G29C, A30U, U31G
DNA 1: CAATCTGAATTCCGGTCTCCC
DNA 2: TGGTGGCTACGACGGGATT
B15: CAUUUUA (DNA:RNA)
RNA: B1 RNA with A25C, A27U, A28U, C31A
DNA 1: CAATCTGAATTCCGGTCTCCC
DNA 2: TGGTGGCTACGACGGGATT
B16: GCCCCCU (DNA:RNA)
RNA: B2 RNA with C25G, U26C, G27C, G29C, A30C
DNA 1: CAATCTGAATTCCGGTCTCCC
DNA 2: TGGTGGCTACGACGGGATT
B17: CCGAACU (DNA:RNA)
RNA: B2 RNA with U26C, C28A, G29A, A30C
DNA 1: CAATCTGAATTCCGGTCTCCC
DNA 2: TGGTGGCTACGACGGGATT
B18: CCAUUUA (DNA:RNA)
RNA: B1 RNA with A25C, A26C, A28U, C31A
DNA 1: CAATCTGAATTCCGGTCTCCC
DNA 2: TGGTGGCTACGACGGGATT
B19: GAGUAUA (DNA:RNA)
RNA: B1 RNA with A25G, A27G, A28U, U29A, C31A
DNA 1: CAATCTGAATTCCGGTCTCCC
DNA 2: TGGTGGCTACGACGGGATT
B20: AUUAGGC (DNA:RNA)
RNA: B1 RNA with A26U, A27U, U29G, U30G
DNA 1: CAATCTGAATTCCGGTCTCCC
DNA 2: TGGTGGCTACGACGGGATT

The binders below were run against T1, RBFOX1 RRM RbFoxmut (Fox-RRM*) (assay: EMSA; HiTS-Eq, 1 nM pool, 10 min; buffer printed only for the single-RNA assays: 10 mM Tris pH 7.5, 150 mM NaCl, 3.4 mM EDTA, 0.001% NP-40, 30 C). Conditions: tags: His6 N-terminal (pET28a); label: 5' 32P.
Summary of the method: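 Purified RbFox RRM (wild type or mutant) was equilibrated for 10 min in 50 µL with 1 nM of a 5′-radiolabelled pool of RNA with 7 randomized nucleotides, its flanks annealed to DNA oligonucleotides, across increasing protein concentrations. Free RNA was separated by 8% native PAGE, excised, reverse-transcribed, PCR-barcoded and sequenced on an Illumina HiSeq 2500. Relative association constants came from read-count changes of each variant against the control reaction, normalised to the cognate motif.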
B1 was tested, and the binding signal was 0.0842 KA relative to UGCAUGU. In the case of B2, the binding signal is reported as 0.0642 KA relative to UGCAUGU. With B3 the binding signal was 0.0831 KA relative to UGCAUGU. With B4 the binding signal was 0.371 KA relative to UGCAUGU. In the case of B5, the binding signal is reported as 0.172 KA relative to UGCAUGU. In the case of B6, the binding signal is reported as 0.06 KA relative to UGCAUGU. With B7 the binding signal was 0.119 KA relative to UGCAUGU. For B8, the binding signal was 0.0803 KA relative to UGCAUGU. In the case of B9, the binding signal is reported as 0.126 KA relative to UGCAUGU. In the case of B10, the binding signal is reported as 0.0693 KA relative to UGCAUGU. B11 was tested, and the binding signal was 0.0889 KA relative to UGCAUGU. B12 was tested, and the binding signal was 0.124 KA relative to UGCAUGU. With B13 the binding signal was 0.0815 KA relative to UGCAUGU. In the case of B14, the binding signal is reported as 0.111 KA relative to UGCAUGU. With B15 the binding signal was 0.108 KA relative to UGCAUGU. In the case of B16, the binding signal is reported as 0.0447 KA relative to UGCAUGU. For B17, the binding signal was 0.0676 KA relative to UGCAUGU. In the case of B18, the binding signal is reported as 0.105 KA relative to UGCAUGU. For B19, the binding signal was 0.131 KA relative to UGCAUGU. B20 was tested, and the binding signal was 0.105 KA relative to UGCAUGU.
